The results in this text go back to the RNAGym collection of RNA variant scans (doi:10.1093/nar/gkz1192).

The source gives no read counts; variants with many changes may rest on few reads.

First the molecules themselves.
B1: CPEB3 Ribozyme (parent)
chain: UAACAGGGGGCCACAGCAGAAGCGUUCACGUCGCAGCCCCUGUCAGAUUCUGGUGAAUCUGCGAAUUCUGCUGUAUAUCUC

In this data set the parent is B1. Description: self-cleavage, relative activity (ratio to wild type); higher = more cleavage; in vitro, sequencing. The essentials:
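For each CPEB3 ribozyme variant, relative activity is its cleaved/total read fraction divided by the unmutated ribozyme's. Barcoded error-prone PCR libraries were transcribed by T7 RNA polymerase (5 hours, 37°C) and held in DNase I for 15 min before an EDTA stop, with cleavage occurring throughout. Template-switching reverse transcription and Illumina sequencing were used to read the RNAs. A 5-read minimum applied, and results are the mean of three batches.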
Regarding UAACAGGGGGCCACAGCAGAAGCGUUCACGUCGCAGCCCCAGUCAGAUUCUGCUGAAUCUGCGAAUUCAGCUGUAUACCUC [U41A G53C U69A U78C], the self-cleavage was 0.07.
As for UAACAGGGGGCCACAGCAGAAGCGUUCACGUCGCAGCCCCAAUCAGAUUCUGGUGUAUCAGCGAAUUCUGCUGUAUAUCUC [U41A G42A A56U U60A], the self-cleavage is 0.13.
The result for UAACAGGGGGCCACAGCAGAAGCGUUCACGUCGCAGCCCCAGGCAGAUUCUGGUGAAACGGCGAAUUCUGCUGUACAUCUC [U41A U43G U58A U60G U76C] reads 0.17; that for UAACAGGGGGCCACAGCAGAAGCGUUCACGUCGCAGCCCCAGUCAGACUCUGGUGAAUCUGCGAAUUCUGCUGUAUAACUC [U41A U48C U78A], 0.18; that for UAACAGGGGGCCACAGCAGAAGCGUUCACGUCGCAGCCCCAGUCAGACUCUGGAGAAUCGGCGAAUUCUGCCGUAUAUCUC [U41A U48C U54A U60G U72C], 0.12.
For UAACAGGGGGCCACAGCAGAAGCGUUCACGUCGCAGCCCCAGUCAGAUACUGGUGAAUCUGCGAAUUCUGCUGUACAUCCC [U41A U49A U76C U80C], the self-cleavage was found to be 0.16.
For the variant UAACAGGGGGCCACAGCAGAAGCGUUCACGUCGCAGCCCCAGACAGAUUCUGGUGAAUCUGCGAAUCCUGCUGUAUAUCUC [U41A U43A U67C], the self-cleavage worked out at 0.1.
Turning to UAACAGGGGGCCACAGCAGAAGCGUUCACGUCGCAGCCCCAGUCGGAUUCUGGUGAAUCAGCGAAUUCUGCUGUAUAUCUC [U41A A45G U60A], the self-cleavage came out at 0.35.
With UAACAGGGGGCCACAGCAGAAGCGUUCACGUCGCAGCCCCAGUCAGAUCCUGGUGGAUCUGCGAAUUCUGCUGUAUUUCUC [U41A U49C A56G A77U] the figure was 0.42; with UAACAGGGGGCCACAGCAGAAGCGUUCACGUCGCAGCCCCAGUCAGACUCUGGUGAAUCUGCGAAUUCUGCUGUAUAUCCC [U41A U48C U80C], 0.38.
With UAACAGGGGGCCACAGCAGAAGCGUUCACGUCGCAGCCCCAGACAGAUUAUGGUGAAUCUGCGAAUUCUGCUGUAUAUCUC [U41A U43A C50A] the figure was 0.18; with UAACAGGGGGCCACAGCAGAAGCGUUCACGUCGCAGCCCCAGUCAGAUUCUGGUGAAUAUGCGAGUUCCGCUGUAUAUCUC [U41A C59A A65G U69C], 0.09; with UAACAGGGGGCCACAGCAGAAGCGUUCACGUCGCAGCCCCAGUCAGAUUCUGGUGGAUCUGCGGAUUCUGCUGAAUAUCGC [U41A A56G A64G U74A U80G], 0.05.
The result for UAACAGGGGGCCACAGCAGAAGCGUUCACGUCGCAGCCCCAGUCGGAUUCUGGUGAAUCUGCGAAUCCUGCUGUAUAUCUC [U41A A45G U67C] reads 0.31; that for UAACAGGGGGCCACAGCAGAAGCGUUCACGUCGCAGCCCCAGUCUGAUUCUGGAGAAUCUGCGAAUUCUGCUGUAUAUCUC [U41A A45U U54A], 0.15.
For the variant UAACAGGGGGCCACAGCAGAAGCGUUCACGUCGCAGCCCCAGUCAGAUACCGGUGAAUCUGCGAAUUCUGCUGUAUAUCUC [U41A U49A U51C], the self-cleavage turned out to be 0.21.
In the case of UAACAGGGGGCCACAGCAGAAGCGUUCACGUCGCAGCCCCAGUCAGACUCUGGUGAAUCUGCGAAUUCUGCAGUAUAUCUC [U41A U48C U72A], the self-cleavage came out at 0.25.
With UAACAGGGGGCCACAGCAGAAGCGUUCACGUCGCAGCCCCAGUCUGAUUCUGGUGAAUCUGCGAAUUCUGCUGUUUAUCUC [U41A A45U A75U] the figure was 0.1; with UAACAGGGGGCCACAGCAGAAGCGUUCACGUCGCAGCCCCAGUCUGAUUCUGGUGAAUCUGCGAAUUCUGCUGUACAUCUC [U41A A45U U76C], 0.1.
On to UAACAGGGGGCCACAGCAGAAGCGUUCACGUCGCAGCCCCAGUCAGAUUCUGGUGGAUCUGCGAAUACUGCUGUAUAUCUC [U41A A56G U67A], for which the self-cleavage came out at 0.11.
For UAACAGGGGGCCACAGCAGAAGCGUUCACGUCGCAGCCCCAGUCACAUUCUGGUGAAUCUGCGAAUUCUGCAGUAUAUCUC [U41A G46C U72A], the self-cleavage came to 0.08.
With UAACAGGGGGCCACAGCAGAAGCGUUCACGUCGCAGCCCCAGUCAGAUCCUGGUGAAUCUGCGGAUUCUGCUGUAUAUCUC [U41A U49C A64G] the figure was 0.4.
On to UAACAGGGGGCCACAGCAGAAGCGUUCACGUCGCAGCCCCAGUCAGAUUCUGGUGAAUAUGCGGAUUCAGCUGUUUAUCUC [U41A C59A A64G U69A A75U], for which the self-cleavage came out at 0.13.
In the case of UAACAGGGGGCCACAGCAGAAGCGUUCACGUCGCAGCCCCAGUCAGAUUCUGGUGUAACUGCGAAUUCUGCGGCAUACCUC [U41A A56U U58A U72G U74C U78C], the self-cleavage amounted to 0.12.
Take UAACAGGGGGCCACAGCAGAAGCGUUCACGUCGCAGCCCCAGUCAGGUCCUGGUGAGUCUGCGAAUACUGCUGUAUACCUC [U41A A47G U49C A57G U67A U78C]: the self-cleavage is 0.07.
The result for UAACAGGGGGCCACAGCAGAAGCGUUCACGUCGCAGCCCCAGUCAGAUUCUGGUGGAUCUGCGAAUCCUGCUGUAUACCUC [U41A A56G U67C U78C] reads 0.07; that for UAACAGGGGGCCACAGCAGAAGCGUUCACGUCGCAGCCCCAGUCAGGUUCUGGUGAAUCUGCGAGUUCUGCUGUAUAUCUC [U41A A47G A65G], 0.18.
Take UAACAGGGGGCCACAGCAGAAGCGUUCACGUCGCAGCCCCAGCCAGAUUCUGGUGAAACUGCGAAUCCUGCUGUAUAUCUC [U41A U43C U58A U67C]: the self-cleavage was found to be 0.33.
As for UAACAGGGGGCCACAGCAGAAGCGUUCACGUCGCAGCCCCAGUCAGAUCCUGGUGAAUCUGCGAAUUCCGCUGUAUAUCUC [U41A U49C U69C], the self-cleavage was 0.12.
With UAACAGGGGGCCACAGCAGAAGCGUUCACGUCGCAGCCCCAGUCAUAUUCUGGCGAAUCUGCGAAUUCUGCUGUACAUCUC [U41A G46U U54C U76C] the figure was 0.11.
The result for UAACAGGGGGCCACAGCAGAAGCGUUCACGUCGCAGCCCCAGUCAGACUCUGGUUAAUCUGCGAAUUCUGCUGUAUAUCUC [U41A U48C G55U] reads 0.11.
Consider UAACAGGGGGCCACAGCAGAAGCGUUCACGUCGCAGCCCCAGUCAAAUUCUGGUGAAUCAGCGAAUUCUGCUGUAUAUCAC [U41A G46A U60A U80A], for which the self-cleavage amounted to 0.27.
With UAACAGGGGGCCACAGCAGAAGCGUUCACGUCGCAGCCCCAGUCAGACGCUGGUGAAUCUGCGAAUUCUGCUGUAUAUCUC [U41A U48C U49G] the figure was 0.09; with UAACAGGGGGCCACAGCAGAAGCGUUCACGUCGCAGCCCCAGUCAGAUUCUGGUGAGUCUGCGAACUCUGCUGCAUAUCUC [U41A A57G U66C U74C], 0.18.
